In paper PMC4336329 (PLoS ONE, 2015):
The whole screen tested about 310,000 compounds, of which about 14,000 (4.5%) showed an effect of 50% or more. Effects have a minus sign here. The list shows a part of the results.

Biological target: human ether-à-go-go-related gene (hERG) potassium channel (human, UniProt Q12809)
Assay: primary screen, population patch clamp on CHO cells stably expressing hERG
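Note: peak tail current of the secondary pulse compared with the same well before compound.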

human ether-à-go-go-related gene (hERG) potassium channel, sequence (Q12809 whole entry, looked up): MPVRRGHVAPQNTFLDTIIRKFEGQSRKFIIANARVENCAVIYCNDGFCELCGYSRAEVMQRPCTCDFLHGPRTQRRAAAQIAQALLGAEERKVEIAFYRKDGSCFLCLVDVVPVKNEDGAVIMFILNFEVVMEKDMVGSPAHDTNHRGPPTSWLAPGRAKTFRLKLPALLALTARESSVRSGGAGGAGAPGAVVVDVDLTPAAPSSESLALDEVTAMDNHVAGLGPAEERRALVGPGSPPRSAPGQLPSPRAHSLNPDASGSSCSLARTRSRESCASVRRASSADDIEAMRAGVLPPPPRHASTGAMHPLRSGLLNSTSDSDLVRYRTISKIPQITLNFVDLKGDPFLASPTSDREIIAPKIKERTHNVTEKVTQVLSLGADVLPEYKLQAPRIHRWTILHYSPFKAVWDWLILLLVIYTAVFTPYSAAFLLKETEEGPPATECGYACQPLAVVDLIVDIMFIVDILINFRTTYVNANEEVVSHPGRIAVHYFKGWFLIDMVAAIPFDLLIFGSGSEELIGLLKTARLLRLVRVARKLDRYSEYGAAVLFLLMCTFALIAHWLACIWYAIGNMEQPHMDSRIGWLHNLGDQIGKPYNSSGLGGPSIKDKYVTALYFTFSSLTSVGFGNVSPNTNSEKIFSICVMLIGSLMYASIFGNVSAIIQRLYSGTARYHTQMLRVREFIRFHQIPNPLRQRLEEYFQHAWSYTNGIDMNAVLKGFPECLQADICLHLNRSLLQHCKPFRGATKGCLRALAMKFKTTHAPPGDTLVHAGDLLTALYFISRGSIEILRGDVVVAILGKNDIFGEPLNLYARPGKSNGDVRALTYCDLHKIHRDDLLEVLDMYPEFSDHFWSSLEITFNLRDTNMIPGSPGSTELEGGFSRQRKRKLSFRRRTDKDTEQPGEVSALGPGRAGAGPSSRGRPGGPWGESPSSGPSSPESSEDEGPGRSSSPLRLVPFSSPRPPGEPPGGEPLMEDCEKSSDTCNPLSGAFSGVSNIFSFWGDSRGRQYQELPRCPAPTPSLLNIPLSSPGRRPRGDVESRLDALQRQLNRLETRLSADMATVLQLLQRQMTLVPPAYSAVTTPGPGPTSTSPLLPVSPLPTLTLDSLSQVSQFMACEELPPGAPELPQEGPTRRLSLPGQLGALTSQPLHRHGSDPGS

SMILES	hERG current change (%, negative = inhibition) at 10uM [%]
Cc1cc(NS(=O)(=O)Cc2ccccc2)cc(C)c1OCC(=O)N1CCOCC1	-0.529
Cn1c(SCC(=O)Nc2ccc3nc(SCC(=O)N4CCCC4)sc3c2)nnc1-c1ccccc1	8.67
CN(CCN1CCOCC1)C(=O)CC1C(=O)NCCN1Cc1ccccc1C(F)(F)F (stereo not shown)	11.7
Cc1nn(-c2ccccc2)c(C)c1NC(=O)COc1ccc([N+](=O)[O-])cc1	-69.4
O=C(/C=C/Nc1ccc(F)cc1F)c1ccc(Br)cc1	19.4
CC(C)N1CCN(CC2COc3ccccc3O2)CC1.Cl (stereo not shown)	-19.4
CNC(=O)NC(=O)CN1C(=O)NC2(CCOc3ccccc32)C1=O (stereo not shown)	18.9
O=C(CN1C(=O)C2(OCCO2)c2ccccc21)c1ccc(Cl)cc1	-26
COc1ccc(N2CCN(C(=O)c3ccc(NS(=O)(=O)c4cccc(F)c4)cc3)CC2)cc1	-29.8
COCCCN(C(=O)Nc1cccc(Cl)c1)C(C)c1ccccn1 (stereo not shown)	3.29
CCC1(C)COC(C)(CC(=O)NNC(=O)Nc2ccccc2)OC1 (stereo not shown)	15.3
CCOCCCNC(=S)Nc1ccc2nc(N3CCOCC3)cc(C)c2c1	-7.68
CCOC(=O)c1ccc(OC)c(OC)c1Cl	16.4
COc1cc(Br)c(Br)c(Br)c1N	6.99
CCOc1ccc(C(OC(=O)c2ccco2)C(=O)NCc2ccc(C)cc2)cc1 (stereo not shown)	10.4
Cc1cc(C(=O)NNC(=O)c2cccc([N+](=O)[O-])c2)n[nH]1	18.9
COc1ccc(NC(=O)CN2CCN(c3ccc(F)cc3)CC2)cc1	-4.62
Cc1cc(C)cc(NC(=O)C(OC(=O)c2ccc(O)cc2)c2ccccc2)c1 (stereo not shown)	-15.2
O=C(O)CC(CNC(=O)C1CCCN1C(=O)OCc1ccccc1)c1ccccc1 (stereo not shown)	16.3
CCOc1ccc(Cn2nnc(C(=O)NCCc3ccccc3)c2N)cc1	2.1
CCOC(=O)Cn1c(=O)c2c(nc3n2CC(C)CN3Cc2ccccc2)n(C)c1=O (stereo not shown)	-44.4
CC(C)Cc1[nH]c(=O)c(C#N)c2c1CCCC2	-3.79
CC(=O)C1CCCN(C(=O)c2ccc3nc(Cc4cccc(Cl)c4)oc3c2)C1 (stereo not shown)	-10.4
O=C(NCCN1CCCCC1)c1cc(Cl)ccc1Cl	1.65
CCN(CC(=O)Nc1ccc(C(=O)OC)cc1)Cc1ccccc1.O=C(O)C(=O)O	-3.03
